Results published in paper PMC4336329 (PLoS ONE, 2015).
Hit rate of the full screen: of about 310,000 compounds, about 2,200 (0.71%) showed an effect of 50% or more. The effect is printed as a negative number. This is one part of the list.

These compounds were tested against human ether-à-go-go-related gene (hERG) potassium channel (human, UniProt Q12809) (assay: primary screen, population patch clamp on CHO cells stably expressing hERG).
human ether-à-go-go-related gene (hERG) potassium channel, sequence (Q12809 whole entry, looked up): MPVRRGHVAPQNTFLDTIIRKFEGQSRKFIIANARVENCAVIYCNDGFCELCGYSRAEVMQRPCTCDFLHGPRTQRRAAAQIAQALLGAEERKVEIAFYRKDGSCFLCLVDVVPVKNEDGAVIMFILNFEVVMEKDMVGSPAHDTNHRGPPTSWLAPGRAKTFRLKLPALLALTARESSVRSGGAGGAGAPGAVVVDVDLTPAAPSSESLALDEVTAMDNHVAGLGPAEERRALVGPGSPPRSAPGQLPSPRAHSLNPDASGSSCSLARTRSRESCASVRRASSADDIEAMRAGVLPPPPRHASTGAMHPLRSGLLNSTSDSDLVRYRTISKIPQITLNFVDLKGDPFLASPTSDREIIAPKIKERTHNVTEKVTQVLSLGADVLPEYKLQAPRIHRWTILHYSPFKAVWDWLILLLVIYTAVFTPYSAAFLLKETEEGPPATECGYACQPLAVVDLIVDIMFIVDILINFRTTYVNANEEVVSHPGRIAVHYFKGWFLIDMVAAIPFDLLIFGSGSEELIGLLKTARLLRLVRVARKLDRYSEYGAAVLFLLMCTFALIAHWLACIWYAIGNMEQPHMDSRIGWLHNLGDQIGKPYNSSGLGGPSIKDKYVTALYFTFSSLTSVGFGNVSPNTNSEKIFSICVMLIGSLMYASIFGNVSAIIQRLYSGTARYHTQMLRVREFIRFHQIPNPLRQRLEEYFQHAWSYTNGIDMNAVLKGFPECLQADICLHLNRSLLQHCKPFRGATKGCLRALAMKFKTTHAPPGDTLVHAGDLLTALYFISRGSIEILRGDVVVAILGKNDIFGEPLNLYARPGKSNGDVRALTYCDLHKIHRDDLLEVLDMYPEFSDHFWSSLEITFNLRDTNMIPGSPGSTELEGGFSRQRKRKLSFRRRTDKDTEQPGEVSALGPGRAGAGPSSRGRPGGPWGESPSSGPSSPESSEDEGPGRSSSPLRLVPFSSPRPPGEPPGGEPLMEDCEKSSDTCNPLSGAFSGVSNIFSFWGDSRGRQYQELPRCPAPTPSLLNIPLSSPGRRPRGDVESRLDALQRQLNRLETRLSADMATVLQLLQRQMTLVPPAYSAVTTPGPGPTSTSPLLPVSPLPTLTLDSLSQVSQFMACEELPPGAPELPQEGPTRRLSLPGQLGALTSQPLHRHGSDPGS

Going from COc1cc(OC)c(OC)cc1CNC(=O)c1ccc(COc2ccccc2)cc1 to COc1ccc(NP(=O)(Oc2ccc(Cl)cc2)Oc2ccc(Cl)cc2)cc1OC, the “hERG current change (%, negative = inhibition) at 1uM” value falls from 15% to -7.48%.

Going from CCC(C)(C)NC(=O)Cn1c(-c2ccc(C)cc2)noc1=O to CCn1ncc(/C=N\NC(=O)Cc2ccc([N+](=O)[O-])cc2)c1C, the “hERG current change (%, negative = inhibition) at 1uM” value falls from 9.92% to 2.33%.

Compared with CC(=O)Cc1nsc(NC(=O)c2c(-c3ccccc3Cl)noc2C)n1, Cc1onc(-c2ccccc2Cl)c1C(=O)OCC(=O)Nc1cccc(S(=O)(=O)N2CCOCC2)c1 is lower in “hERG current change (%, negative = inhibition) at 1uM” value: 14.1% for the first, 8.29% for the second.

Going from C=CCn1c(SCC(=O)c2[nH]c(C)c(C(=O)OC)c2C)nc2scc(-c3ccc(OC)c(OC)c3)c2c1=O to COc1ccc(CNc2ccc3c(c2)ncn3C)cc1OC, the “hERG current change (%, negative = inhibition) at 1uM” value falls from 21.3% to 15.6%.

Going from CC(=O)N(CCO)Cc1cc2cc(C)cc(C)c2[nH]c1=O to CCOC(=O)c1cc(=O)[nH]c2ccccc12, the “hERG current change (%, negative = inhibition) at 1uM” value falls from 13.5% to 7.68%.

First: CC(C)N(Cc1ccccc1)C(=O)C1CCCN(c2ncnc3c2nc2n3CCCCC2)C1 (centres unmarked)
Second: CC1CCCCN1C(=O)CSc1nnc(Cc2ccccc2)n1C (centres unmarked)
The “hERG current change (%, negative = inhibition) at 1uM” value of the first is lower: 7.91% for the first, 19.9% for the second.

First: Cc1nn(CC(=O)Nc2nnc(C(C)C)s2)c(=O)c2ccccc12
Second: CCCc1nnc(NC(=O)CCC(=O)NCc2ccccc2)s1
The “hERG current change (%, negative = inhibition) at 1uM” value of the first is higher: 23.1% for the first, 17.3% for the second.

First: COc1cc(C2c3c(n[nH]c3C)C(=O)N2c2ccc(Br)cc2)ccc1O (centres unmarked)
Second: COc1ccc(/C(O)=C2/C(=O)C(=O)N(CCN(C)C)C2c2cccnc2)cc1C (centres unmarked)
The “hERG current change (%, negative = inhibition) at 1uM” value of the first is higher: 8.59% for the first, 4.02% for the second.

First: COC(=O)CC1(C(=O)OC)Oc2ccc(Br)cc2C(=O)N1c1cccc(Cl)c1Cl (centres unmarked)
Second: Cc1cccc(NC(=O)C2CCN(S(=O)(=O)c3ccc4c(c3)C(C)(C)C(=O)N4C)CC2)c1C
The “hERG current change (%, negative = inhibition) at 1uM” value of the first is lower: 14.6% for the first, 15.3% for the second.

Going from CN(CCOc1ccccc1)C(=O)C1CCC(=O)N(CCCN2CCOCC2)C1 (centres unmarked) to O=C(NCCCN1CCOCC1)c1ccc(Cl)s1, the “hERG current change (%, negative = inhibition) at 1uM” value falls from 10.4% to -6.78%.

Going from CCC(CC)C(=O)Nc1cccc(C(=O)Nc2ccc(OC)cc2[N+](=O)[O-])c1 to CC(=O)c1cccc(NC(=O)c2cc(-n3cnnc3)ccc2Cl)c1, the “hERG current change (%, negative = inhibition) at 1uM” value falls from 7.15% to 4.24%.

Going from CCCCn1c(O)c(/C=N/N2CCCCC2c2cccnc2)c(=O)[nH]c1=S (centres unmarked) to O=C(CCCn1c(=S)[nH]c2cc3c(cc2c1=O)OCO3)N1CCN(c2ccccc2)CC1, the “hERG current change (%, negative = inhibition) at 1uM” value rises from -2.58% to 9.16%.

Going from Cc1cccc(/C=N\Nc2cn[nH]c(=O)c2Cl)c1 to COC(=O)c1ccc(/C=N/Nc2nc(-c3ccccc3)cs2)cc1, the “hERG current change (%, negative = inhibition) at 1uM” value falls from 10.1% to 8.5%.

Going from CC1CCCCC12NC(=O)N(CC(=O)OCC(=O)c1ccc(OC(F)F)cc1OC(F)F)C2=O (centres unmarked) to COc1ccc(NC(=O)CN(C)C(=O)CN2C(=O)C3CCCCC3C2=O)cc1 (centres unmarked), the “hERG current change (%, negative = inhibition) at 1uM” value falls from 3.14% to 0.703%.

Compared with CCN(CC)C(=O)CN(C#N)c1nc(OC)nc(N(C)C)n1, CCc1nc(SCC(=O)Nc2nnc(CC)s2)c2c(=O)n(C)c(=O)n(C)c2n1 is lower in “hERG current change (%, negative = inhibition) at 1uM” value: 10.9% for the first, 7.95% for the second.

First: O=C(Nc1cc(C(F)(F)F)ccc1N1CCOCC1)c1cccc(F)c1
Second: O=C(NCCCN1CCCC1)c1cc(Sc2ccc(F)cc2)nc2ccccc12
The “hERG current change (%, negative = inhibition) at 1uM” value of the first is lower: -12.1% for the first, -9.42% for the second.

First: CC(=O)c1ccc(N2CCN(CC(=O)NCc3ccccc3)CC2)cc1
Second: O=C(CSc1ccc(Cl)cc1)Nc1ccc(N2CCN(C(=O)c3ccc(Cl)cc3)CC2)cc1
The “hERG current change (%, negative = inhibition) at 1uM” value of the first is lower: -2.67% for the first, 6.01% for the second.

Going from CCOC(=O)C1CCCN(C(=O)C2CCN(S(=O)(=O)CC)CC2)C1 (centres unmarked) to Cc1ccccc1N1CCN(S(=O)(=O)CC23CCC(CC2=O)C3(C)C)CC1 (centres unmarked), the “hERG current change (%, negative = inhibition) at 1uM” value rises from 10.2% to 10.6%.

Compared with CC(=O)Nc1cccc(OCCCNC(=O)C2CCC2)c1, COc1ccc(CNC(=O)CCC(=O)Nc2cccnc2)cc1 is lower in “hERG current change (%, negative = inhibition) at 1uM” value: 16.6% for the first, 16% for the second.

Compared with CCOC(=O)C1=C(c2ccccc2)NC(SCC(=O)Nc2cccc(C)c2)=C(C#N)C1c1ccco1 (centres unmarked), Cc1cccc(C)c1NC(=O)CCCN1C(=O)C(c2ccccc2)Oc2cccnc21 (centres unmarked) is higher in “hERG current change (%, negative = inhibition) at 1uM” value: -6.68% for the first, 9.92% for the second.

First: O[C@@H]1CCCN2CCc3c([nH]c4ccccc34)[C@H]12
Second: Cc1ccccc1CN1CCN(CC2CC2)CC1CCO (centres unmarked)
The “hERG current change (%, negative = inhibition) at 1uM” value of the first is higher: 16.7% for the first, 7.55% for the second.

Going from CC(C)CCN1CCN(Cc2cccs2)CC1CCO (centres unmarked) to CC(C)CCn1c(NCCc2ccccc2)nc2c1c(=O)n(C)c(=O)n2C, the “hERG current change (%, negative = inhibition) at 1uM” value rises from 2.15% to 8.2%.

First: C/C(=N\NC(=O)c1ccccc1O)C1C(=O)c2ccccc2C1=O
Second: Oc1ccc(/C=N/NP(=S)(c2ccccc2)c2ccccc2)c(O)c1O
The “hERG current change (%, negative = inhibition) at 1uM” value of the first is lower: -0.989% for the first, 5% for the second.

First: O=C(NCc1ccc(F)cc1)C1CCN(S(=O)(=O)c2ccc(Br)s2)CC1
Second: O=S(=O)(NCc1ccc(Cl)cc1)NCc1ccccc1F
The “hERG current change (%, negative = inhibition) at 1uM” value of the first is lower: -3.56% for the first, 6.32% for the second.

Compared with N#Cc1c(SCC(=O)Nc2nccs2)sc2c(O)cc(=O)[nH]c12, CCc1nnc(NC(=O)CSc2nnnn2C)s1 is lower in “hERG current change (%, negative = inhibition) at 1uM” value: 9.53% for the first, 0.657% for the second.

Compared with CCc1nc2ccccc2c(=O)n1NC(=O)c1c(O)c2cccc3c2n(c1=O)CCC3, Cc1ccccc1NC(=O)C(c1ccccc1)C1CCCC1 (centres unmarked) is lower in “hERG current change (%, negative = inhibition) at 1uM” value: 15.9% for the first, 9.31% for the second.

Going from O=P(Oc1ccccc1)(Oc1ccccc1)C(O)c1ccc(Cl)cc1 (centres unmarked) to O=C(NNC(=S)Nc1ccc(Br)cc1)c1ccccc1, the “hERG current change (%, negative = inhibition) at 1uM” value rises from 7.7% to 12.2%.

Going from Cc1cc(S(=O)(=O)NCc2cccnc2)ccc1-n1cnnn1 to O=C(O)c1cccc(C(=O)c2cccc(C(=O)O)c2)c1, the “hERG current change (%, negative = inhibition) at 1uM” value rises from -10.8% to 16.6%.
